# Reference: PubChem BioAssay AID485364 (National Center for Advancing Translational Sciences (NCATS), 2010)
# In all, about 360,000 compounds went through this assay and about 11,000 (3.1%) were called active. The shares of active, inactive and inconclusive entries below differ from those in the screen. Calls follow the shape of the dose curve; as a rule, active = well fitted inhibition curve with a large enough effect; inconclusive = small, poorly fitted or top-dose-only effect; inactive = no such curve, though single readings can be large or run the other way. Potencies of inconclusive entries are left out as doubtful fits.
# Target: Schistosoma mansoni thioredoxin glutathione reductase (TGR) (UniProt Q962Y6)
# Assay: qHTS Assay for the Inhibitors of Schistosoma Mansoni Peroxiredoxins; also: nearly all actives have a fitted effect of over 60% in size
# Conditions: purified TGR, DTNB reduction, TNB absorbance 405 nm; activity change, negative = inhibition: at 114 µM (top of the series) unless noted
# Procedure, shortened: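 Kinetic colorimetric format: TGR-catalysed, NADPH-driven DTNB reduction monitored via TNB absorbance. Enzyme dispensed at 20 nM; compound exposure 15 min at room temperature before reaction start.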
# % is scaled to controls: 0 for no effect and ±100 for the full control effect; potency is read from the fitted curve at half-maximal effect; tags tell the direction and shape of the fitted curve.
Compound,"activity change, negative = inhibition",Potency
CCc1ccc(NC(=O)Cn2cccc2)cc1,inactive: -2.62%,–
O=C(Nc1nc2ccc(F)cc2s1)c1cccc(S(=O)(=O)N2CCc3ccccc32)c1,–,"inconclusive [inhibitor, single point]"
CC(=O)c1cc(F)c(N2CCN(CCC#N)CC2)cc1C,–,"inconclusive [inhibitor, partial curve]"
CCOC(=O)c1cc(-c2ccc(OC)cc2)n(CCC(=O)Nc2cccc(C)c2C)c1C,–,"inconclusive [inhibitor, full curve, poor fit]"
C=CCn1c(O)c(C(C)=O)c(=O)[nH]c1=O (tested in a mixture with another compound),–,"inconclusive [inhibitor, full curve, poor fit]"
COC(=O)c1ccccc1NC(=S)NC(=O)c1ccccc1,–,active: 11.2 µM
Cc1ccc(-c2nnc(NC(=O)c3ccc([N+](=O)[O-])o3)o2)c(C)c1,–,"inconclusive [inhibitor, partial curve]"
Cc1cccc(NCc2ccccc2O)n1,inactive: -0.609%,–
Cc1ccc(NCc2cc3cc4c(cc3n(CC(=O)Nc3ccc(C)cc3)c2=O)OCCO4)cc1,–,active: 44.7 µM
COc1ccc([C@]23Cc4cc(OC)c(OC)cc4C(O2)C2=C(CC4(CCCCC4)OC2=O)O3)cc1,–,"inconclusive [inhibitor, partial curve]"
CCc1cc(CNC(=O)CC2C(=O)NCCN2Cc2ccc(-c3ccccc3)cc2)on1 (stereo unspecified),–,"inconclusive [inhibitor, partial curve]"
COc1ccc(N=Nc2n(C)c3ccccc3[n+]2C)cc1,–,active: 5.01 µM
O=C1NC(=O)C(=Cc2ccc(N3CCOCC3)cc2)C(=O)N1,–,"inconclusive [inhibitor, full curve, poor fit]"
O=C(c1ccco1)N1CCN(c2ncnc3c2[nH]c2ccc(Cl)cc23)CC1,–,active: 50.1 µM
CCOc1ccc(CNc2cc(C)nc3nc(-c4cccc(C)c4)nn23)cc1OC,–,"inconclusive [inhibitor, partial curve]"
COc1ccc(Nc2nc(N)c([N+](=O)[O-])c(N3CCN(C)CC3)n2)cc1,–,"inconclusive [inhibitor, partial curve]"
CC(C)C1N(C(N)=S)N=CC1(C)C (stereo unspecified),inactive: -3.05%,–
Cc1cc(C(=O)N/N=C2\CCCc3ccccc32)c(C)o1,inactive: -7.19%,–
CC(C)(C)C1CCC(C(=O)OCC(=O)N2CCN(C(=O)c3ccco3)CC2)CC1 (stereo unspecified),inactive: 5.22%,–
Cc1cccc(N2CCN(Cc3nnc(-c4cccc(Br)c4)o3)CC2)c1C,inactive: 1.24%,–
Cc1ncc(CSc2ccc(Cl)cc2)c(CO)c1O,–,"inconclusive [inhibitor, partial curve]"
COC(=O)c1cn(-c2ccc(Cl)cc2)c(=O)c2ccccc12,inactive: -11%,–
CCc1ccc(-c2nc(CS(=O)CC(=O)NCc3ccc(F)cc3)c(C)o2)cc1 (stereo unspecified),–,"inconclusive [inhibitor, partial curve]"

Compound,"activity change, negative = inhibition",Potency
O=C(COC(=O)CCNS(=O)(=O)c1ccc(Cl)cc1)NCc1ccco1,–,"inconclusive [inhibitor, partial curve]"
O=C1CN(C(=O)COC(=O)C2CC(=O)N(Cc3ccco3)C2)c2ccccc2N1 (stereo unspecified),–,active: 39.8 µM
CCOC(=O)N1CCN(C(=O)CCc2c(C)nc3c(c(C)nn3-c3ccc(C)c(C)c3)c2C)CC1,inactive: -9.56%,–
O=C(O)C1C2C=CC3(CN(Cc4ccccn4)C(=O)C13)O2 (stereo unspecified),–,"inconclusive [inhibitor, partial curve]"
Cc1cc2c(cc1C)CN(c1ccccc1)C2,–,"inconclusive [inhibitor, full curve]"
O=C(O)CCC(=O)Nc1ccc(C(=O)OC2CCCCC2)cc1,–,"inconclusive [inhibitor, partial curve, poor fit]"
CCOC(=O)NC1(C(F)(F)F)NC(=O)N(c2ccc(F)cc2)C1=O (stereo unspecified),inactive: -5.6%,–
CN(CCc1ccccc1)Cc1c[nH]c2ccccc12,–,"inconclusive [inhibitor, partial curve]"
COc1ccc(OC)c([C@@H]2Nc3ccc(C(=O)O)cc3[C@@H]3C=CC[C@@H]32)c1,–,"inconclusive [inhibitor, full curve]"
CC1OC2(C)OC(=N)C1(C#N)C(C#N)(C#N)C2c1ccccc1 (stereo unspecified),–,"inconclusive [inhibitor, partial curve]"
CCNC(=S)N/N=C/c1cccs1,–,"inconclusive [inhibitor, partial curve, poor fit]"
Cc1ccc(N2C(=O)c3ccccc3C2C(=O)c2ccc(C)c(C)c2O)cc1 (stereo unspecified),–,active: 4.47 µM
CC1=CC(C)C2(COC(c3ccc[n+](C)c3)OC2)C(C)C1 (stereo unspecified),–,"inconclusive [inhibitor, partial curve]"
COc1ccc(CCN2CC(C(=O)N(C)CC(=O)Nc3ccc(Cl)c(C(F)(F)F)c3)CC2=O)cc1OC (stereo unspecified),inactive: 6.29%,–
COc1ccc(OC)c(C2C(C(=O)c3ccco3)=C(O)C(=O)N2CCN2CCOCC2)c1 (stereo unspecified),–,"inconclusive [inhibitor, single point]"
CC(C)(C)C(=O)Nc1nc2c(s1)CN(Cc1ccccc1)CC2,–,active: 25.1 µM
COc1ccc(N2CCN(C(=O)CN(c3ccc(OC)cc3)S(=O)(=O)c3ccccc3)CC2)cc1,inactive: 2.12%,–
COC(=O)c1[nH]c2ccc(Br)cc2c1NC(=O)CN1CCCCC1CCO (stereo unspecified),–,"inconclusive [inhibitor, full curve, poor fit]"
Oc1ccc(-c2n[nH]c(=S)n2-c2ccc3c(c2)OCCO3)cc1,inactive: -7.09%,–
COc1ccc2nc(NC(=O)c3cccs3)sc2c1,inactive: -2.49%,–
O=C(Nc1ccc2nc3n(c(=O)c2c1)CCCCC3)c1c(F)ccc([N+](=O)[O-])c1F,–,"inconclusive [inhibitor, partial curve]"
Cc1ccc(-n2c(O)c(C=NCCN3CCOCC3)c(=O)[nH]c2=O)cc1,–,"inconclusive [inhibitor, partial curve]"
CC(C)Oc1ccc(C(=O)Nc2ccc(S(=O)(=O)N3CCN(C)CC3)cc2)cc1,–,"inconclusive [inhibitor, single point]"
